Results as given in paper PMC9813392.
No constants are given. Whether binding was seen depends on the method and setting. For some assays here: Binding seen in cells or lysates may run through a third protein. Some binding calls cover weakened binding; strength is not graded here. Where a sequence is shown, tags or fusion partners need not be part of it.

T1: Noc3-CC2Δ, two differently tagged copies (Noc3-CC2Δ-FLAG and Myc-Noc3-CC2Δ) (S. cerevisiae) (UniProt Q07896)
T1 sequence: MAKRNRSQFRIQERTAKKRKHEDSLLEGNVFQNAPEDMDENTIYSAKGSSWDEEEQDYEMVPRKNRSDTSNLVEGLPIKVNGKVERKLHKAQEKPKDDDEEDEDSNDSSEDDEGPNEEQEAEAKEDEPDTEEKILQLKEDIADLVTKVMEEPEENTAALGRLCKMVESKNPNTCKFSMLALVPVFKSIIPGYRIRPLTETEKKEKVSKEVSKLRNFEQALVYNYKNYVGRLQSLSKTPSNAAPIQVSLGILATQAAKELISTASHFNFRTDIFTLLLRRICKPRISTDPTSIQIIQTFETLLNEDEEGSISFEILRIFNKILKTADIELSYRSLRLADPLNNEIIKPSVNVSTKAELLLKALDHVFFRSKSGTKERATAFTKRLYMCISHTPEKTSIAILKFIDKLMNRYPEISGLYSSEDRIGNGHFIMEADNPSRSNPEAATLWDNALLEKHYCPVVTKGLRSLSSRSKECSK

T2: Noc3-CC2Δ, yeast two-hybrid fusion (BD-Noc3-CC2Δ) (S. cerevisiae) (UniProt Q07896)
T2 sequence: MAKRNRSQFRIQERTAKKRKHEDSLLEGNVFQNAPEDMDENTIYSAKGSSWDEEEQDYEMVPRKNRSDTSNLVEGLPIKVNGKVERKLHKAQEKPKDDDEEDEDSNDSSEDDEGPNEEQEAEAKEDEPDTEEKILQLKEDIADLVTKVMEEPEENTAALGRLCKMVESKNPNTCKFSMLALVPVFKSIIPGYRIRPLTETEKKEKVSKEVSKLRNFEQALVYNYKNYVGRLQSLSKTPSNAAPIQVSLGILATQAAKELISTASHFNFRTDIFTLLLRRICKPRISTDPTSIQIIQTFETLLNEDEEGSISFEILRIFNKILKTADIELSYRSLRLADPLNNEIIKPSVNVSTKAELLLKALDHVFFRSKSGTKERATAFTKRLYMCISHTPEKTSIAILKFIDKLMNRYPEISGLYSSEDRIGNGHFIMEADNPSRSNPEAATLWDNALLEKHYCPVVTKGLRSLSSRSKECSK

T3: Noc3p, full length, yeast two-hybrid fusion (BD-NOC3 and AD-Noc3p) (S. cerevisiae) (UniProt Q07896)
T3 sequence: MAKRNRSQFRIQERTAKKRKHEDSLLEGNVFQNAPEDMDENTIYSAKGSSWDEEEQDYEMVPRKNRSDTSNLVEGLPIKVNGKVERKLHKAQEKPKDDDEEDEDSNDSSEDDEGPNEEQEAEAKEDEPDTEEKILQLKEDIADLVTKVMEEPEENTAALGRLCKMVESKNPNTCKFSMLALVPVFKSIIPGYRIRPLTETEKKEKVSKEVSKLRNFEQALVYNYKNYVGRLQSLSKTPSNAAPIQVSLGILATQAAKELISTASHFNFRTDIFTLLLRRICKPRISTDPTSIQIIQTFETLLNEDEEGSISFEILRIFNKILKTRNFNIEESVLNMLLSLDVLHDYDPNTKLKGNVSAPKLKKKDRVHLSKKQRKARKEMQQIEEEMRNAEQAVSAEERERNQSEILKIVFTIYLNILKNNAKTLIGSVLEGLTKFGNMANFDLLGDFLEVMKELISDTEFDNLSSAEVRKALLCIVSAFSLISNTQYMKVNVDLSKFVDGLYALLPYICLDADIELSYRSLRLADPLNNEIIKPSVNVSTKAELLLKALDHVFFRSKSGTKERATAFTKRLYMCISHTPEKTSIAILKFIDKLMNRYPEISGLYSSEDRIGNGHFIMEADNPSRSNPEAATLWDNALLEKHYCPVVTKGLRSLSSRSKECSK


Tests used:
[1] = biological target: T1, Noc3-CC2Δ, two differently tagged copies (Noc3-CC2Δ-FLAG and Myc-Noc3-CC2Δ) (S. cerevisiae); assay: co-IP; cycling (asynchronous) yeast cells; DNase I–digested extracts; IP with anti-FLAG, anti-Myc or the indicated antibodies, control mouse IgG
[2] = biological target: T2, Noc3-CC2Δ, yeast two-hybrid fusion (BD-Noc3-CC2Δ) (S. cerevisiae); assay: two-hybrid; Matchmaker system III (Clontech); BD- and AD-fusion proteins; growth on SCM-Trp-Leu-His plates; empty BD or AD vector as negative controls
[3] = biological target: T3, Noc3p, full length, yeast two-hybrid fusion (BD-NOC3 and AD-Noc3p) (S. cerevisiae); assay: as above

Binder | binding [1] | binding [2] | binding [3]
Orc2p in yeast cell extract (protein, UniProt P32833 1-620) MLNGEDFVEHNDILSSPAKSRNVTPKRVDPHGERQLRRIHSSKKNLLERISLVGNERKNTSPDPALKPKTPSKAPRKRGRPRKIQEELTDRIKKDEKDTISSKKKRKLDKDTSGNVNEESKTSNNKQVMEKTGIKEKREREKIQVATTTYEDNVTPQTDDNFVSNSPEPPEPATPSKKSLTTNHDFTSPLKQIIMNNLKEYKDSTSPGKLTLSRNFTPTPVPKNKKLYQTSETKSASSFLDTFEGYFDQRKIVRTNAKSRHTMSMAPDVTREEFSLVSNFFNENFQKRPRQKLFEIQKKMFPQYWFELTQGFSLLFYGVGSKRNFLEEFAIDYLSPKIAYSQLAYENELQQNKPVNSIPCLILNGYNPSCNYRDVFKEITDLLVPAELTRSETKYWGNHVILQIQKMIDFYKNQPLDIKLILVVHNLDGPSIRKNTFQTMLSFLSVIRQIAIVASTDHIYAPLLWDNMKAQNYNFVFHDISNFEPSTVESTFQDVMKMGKSDTSSGAEGAKYVLQSLTVNSKKMYKLLIETQMQNMGNLSANTGPKRGTQRTGVELKLFNHLCAADFIASNEIALRSMLREFIEHKMANITKNNSGMEIIWVPYTYAELEKLLKTVLNTL | binds |  | 
Orc3p, endogenous, in yeast cell extract (protein, UniProt P54790 1-616) MSDLNQSKKMNVSEFADAQRSHYTVYPSLPQSNKNDKHIPFVKLLSGKESEVNVEKRWELYHQLHSHFHDQVDHIIDNIEADLKAEISDLLYSETTQKRRCFNTIFLLGSDSTTKIELKDESSRYNVLIELTPKESPNVRMMLRRSMYKLYSAADAEEHPTIKYEDINDEDGDFTEQNNDVSYDLSLVENFKRLFGKDLAMVFNFKDVDSINFNTLDNFIILLKSAFKYDHVKISLIFNINTNLSNIEKNLRQSTIRLLKRNYHKLDVSSNKGFKYGNQIFQSFLDTVDGKLNLSDRFVEFILSKMANNTNHNLQLLTKMLDYSLMSYFFQNAFSVFIDPVNVDFLNDDYLKILSRCPTFMFFVEGLIKQHAPADEILSLLTNKNRGLEEFFVEFLVRENPINGHAKFVARFLEEELNITNFNLIELYHNLLIGKLDSYLDRWSACKEYKDRLHFEPIDTIFQELFTLDNRSGLLTQSIFPSYKSNIEDNLLSWEQVLPSLDKENYDTLSGDLDKIMAPVLGQLFKLYREANMTINIYDFYIAFRETLPKEEILNFIRKDPSNTKLLELAETPDAFDKVALILFMQAIFAFENMGLIKFQSTKSYDLVEKCVWRGI | binds |  | 
Orc2p, yeast two-hybrid fusion (AD-Orc2p) (protein, UniProt P32833 1-620) MLNGEDFVEHNDILSSPAKSRNVTPKRVDPHGERQLRRIHSSKKNLLERISLVGNERKNTSPDPALKPKTPSKAPRKRGRPRKIQEELTDRIKKDEKDTISSKKKRKLDKDTSGNVNEESKTSNNKQVMEKTGIKEKREREKIQVATTTYEDNVTPQTDDNFVSNSPEPPEPATPSKKSLTTNHDFTSPLKQIIMNNLKEYKDSTSPGKLTLSRNFTPTPVPKNKKLYQTSETKSASSFLDTFEGYFDQRKIVRTNAKSRHTMSMAPDVTREEFSLVSNFFNENFQKRPRQKLFEIQKKMFPQYWFELTQGFSLLFYGVGSKRNFLEEFAIDYLSPKIAYSQLAYENELQQNKPVNSIPCLILNGYNPSCNYRDVFKEITDLLVPAELTRSETKYWGNHVILQIQKMIDFYKNQPLDIKLILVVHNLDGPSIRKNTFQTMLSFLSVIRQIAIVASTDHIYAPLLWDNMKAQNYNFVFHDISNFEPSTVESTFQDVMKMGKSDTSSGAEGAKYVLQSLTVNSKKMYKLLIETQMQNMGNLSANTGPKRGTQRTGVELKLFNHLCAADFIASNEIALRSMLREFIEHKMANITKNNSGMEIIWVPYTYAELEKLLKTVLNTL |  | binds | binds
Orc3p, yeast two-hybrid fusion (AD-Orc3p) (protein, UniProt P54790 1-616) MSDLNQSKKMNVSEFADAQRSHYTVYPSLPQSNKNDKHIPFVKLLSGKESEVNVEKRWELYHQLHSHFHDQVDHIIDNIEADLKAEISDLLYSETTQKRRCFNTIFLLGSDSTTKIELKDESSRYNVLIELTPKESPNVRMMLRRSMYKLYSAADAEEHPTIKYEDINDEDGDFTEQNNDVSYDLSLVENFKRLFGKDLAMVFNFKDVDSINFNTLDNFIILLKSAFKYDHVKISLIFNINTNLSNIEKNLRQSTIRLLKRNYHKLDVSSNKGFKYGNQIFQSFLDTVDGKLNLSDRFVEFILSKMANNTNHNLQLLTKMLDYSLMSYFFQNAFSVFIDPVNVDFLNDDYLKILSRCPTFMFFVEGLIKQHAPADEILSLLTNKNRGLEEFFVEFLVRENPINGHAKFVARFLEEELNITNFNLIELYHNLLIGKLDSYLDRWSACKEYKDRLHFEPIDTIFQELFTLDNRSGLLTQSIFPSYKSNIEDNLLSWEQVLPSLDKENYDTLSGDLDKIMAPVLGQLFKLYREANMTINIYDFYIAFRETLPKEEILNFIRKDPSNTKLLELAETPDAFDKVALILFMQAIFAFENMGLIKFQSTKSYDLVEKCVWRGI |  | binds | binds
Noc3-F7 fragment, yeast two-hybrid fusion (domain or fragment, UniProt Q07896 326-512) NFNIEESVLNMLLSLDVLHDYDPNTKLKGNVSAPKLKKKDRVHLSKKQRKARKEMQQIEEEMRNAEQAVSAEERERNQSEILKIVFTIYLNILKNNAKTLIGSVLEGLTKFGNMANFDLLGDFLEVMKELISDTEFDNLSSAEVRKALLCIVSAFSLISNTQYMKVNVDLSKFVDGLYALLPYICLD |  |  | binds
Noc3-CC2Δ, two differently tagged copies (Noc3-CC2Δ-FLAG and Myc-Noc3-CC2Δ) (protein, UniProt Q07896) MAKRNRSQFRIQERTAKKRKHEDSLLEGNVFQNAPEDMDENTIYSAKGSSWDEEEQDYEMVPRKNRSDTSNLVEGLPIKVNGKVERKLHKAQEKPKDDDEEDEDSNDSSEDDEGPNEEQEAEAKEDEPDTEEKILQLKEDIADLVTKVMEEPEENTAALGRLCKMVESKNPNTCKFSMLALVPVFKSIIPGYRIRPLTETEKKEKVSKEVSKLRNFEQALVYNYKNYVGRLQSLSKTPSNAAPIQVSLGILATQAAKELISTASHFNFRTDIFTLLLRRICKPRISTDPTSIQIIQTFETLLNEDEEGSISFEILRIFNKILKTADIELSYRSLRLADPLNNEIIKPSVNVSTKAELLLKALDHVFFRSKSGTKERATAFTKRLYMCISHTPEKTSIAILKFIDKLMNRYPEISGLYSSEDRIGNGHFIMEADNPSRSNPEAATLWDNALLEKHYCPVVTKGLRSLSSRSKECSK | no binding |  | 
